Reference: the supplement of paper PMC12217912
The other results are listed elsewhere or left out. The full chains were built here from the parent and the listed change. Inactive controls read about 0.05.

B1: TEV protease; numbered along this chain (parent)
chain: MGESLFKGPRDYNPISSSICHLTNESDGHTTSLYGIGFGPFIITNKHLFRRNNGTLVVQSLHGVFKVKDTTTLQQHLVDGRDMIIIRMPKDFPPFPQKLKFREPQREERICLVTTNFQTKSMSSMVSDTSCTFPSGDGIFWKHWIQTKDGQCGSPLVSTRDGFIVGIHSASNFTNTNNYFTSVPKNFMELLTNQEAQQWVSGWRLNADSVLWGGHKVFMVKPEEPFQPVKEATQL

Variants of: B1
Assay: raw area under fraction-flipped curve 0-4 h after induction (AUC4h, not background-subtracted), DNA-recorder readout of cleavage of the substrate (dimensionless); higher = more cleavage of the substrate by the protease variant
Details: temperature: 34 °C; time window: 0-4 h after rhamnose induction
Procedure: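 In vivo DNA recorder in E. coli TOP10(DE3) ΔrhaA at 34 °C. Each TEVp single-site mutant (parent TEVp 0) is paired with a single-site variant of the 7-mer TEVs (canonical ENLYFQ|S). The substrate sits between flexible linkers in a Bxb1-sfGFP-TEVs-SsrA fusion, so cleavage stabilises Bxb1 and speeds flipping of a recombination array, read by NGS. The value is the raw area under the fraction-flipped curve over 0-4 h after rhamnose induction (AUC4h), with ≥20 reads per time point. It is not background-subtracted; inactive controls average about 0.047.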
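Further: Bxb1 expression induced with 0.2% (w/v) L-rhamnose at OD600 near 0.5, cultures sampled hourly, flipped fraction per protease–substrate barcode pair counted by paired-end Illumina sequencing.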

Variant	area with substrate ENLYFAS	area with substrate ENLYFCS	area with substrate ENLYFDS	area with substrate ENLYFES	area with substrate ENLYFFS	area with substrate ENLYFGS	area with substrate ENLYFHS	area with substrate ENLYFIS	area with substrate ENLYFKS	area with substrate ENLYFMS	area with substrate ENLYFPS	area with substrate ENLYFRS	area with substrate ENLYFSS	area with substrate ENLYFTS	area with substrate ENLYFVS	area with substrate ENLYFWS	area with substrate ENLYFYS	area with substrate ENLYFLS	area with substrate ENLYFNS
H168R	0.0843	0.0597	0.0554	0.0608	0.0816	0.058	0.0629	0.0795	0.0606	0.0305	0.047	0.0536	0.0633	0.0596	0.0523	0.0547	0.0515		
T174L	0.0621					0.0614		0.0373	0.0375		0.072							0.0644	
T174R	0.0422	0.0697	0.0659	0.0638	0.0739		0.0464	0.0589	0.0588	0.0609	0.0619	0.0516		0.0712	0.0454	0.0485	0.0536	0.0625	
T176E	0.0635			0.0594	0.0703	0.0596		0.0571		0.0564	0.0638	0.0667		0.0628	0.0567	0.062	0.0585	0.0706	
T176P	0.0593	0.0564	0.0578	0.0409		0.0874	0.0669	0.0613	0.0661	0.063	0.0639	0.0568	0.055	0.0469	0.0458		0.0522		0.0626
Y179M	0.0709	0.0781	0.0616		0.0608	0.0575		0.0575		0.0575	0.0743		0.0543	0.0548		0.0557			0.0645
V183K	0.0442			0.0482	0.0564	0.0545		0.0553		0.0561	0.0511	0.0556	0.0523	0.0653	0.0423	0.0517	0.0682	0.0605	0.0762
P184A	0.0528	0.0543	0.052	0.0526	0.065		0.0591	0.0556	0.0557	0.0601	0.0322	0.0532		0.0541		0.0527	0.0458	0.0537	
P184R	0.075		0.0557	0.0621				0.0318					0.0469	0.0458					0.0568
P184Y	0.0452	0.0492		0.0591		0.0576		0.0237	0.0348		0.0582		0.0665	0.0585	0.0058	0.0611			0.0554
N186Y	0.0636			0.0636	0.0698			0.0581	0.0884		0.0508			0.0691					
F187P	0.0576		0.0614	0.0536	0.0606	0.0384	0.0465	0.0414	0.0477	0.0469	0.0525			0.051	0.051	0.065	0.0281	0.0451	0.0366
E189K	0.0455		0.0266					0.0458	0.0562				0.0521	0.0677	0.0791				
L191C	0.0316	0.0705	0.0595		0.0657			0.0597	0.0494	0.0573	0.0642	0.05	0.0568	0.0414			0.0526	0.0475	0.0627
T192K	0.0589	0.051		0.0621	0.0803		0.0682	0.0336	0.0626	0.0585	0.0535		0.0692	0.0526	0.053	0.0538	0.0761		0.0619
T192L	0.0574	0.0572			0.0493			0.0473	0.0598		0.0694	0.0588	0.0672	0.0532		0.0501	0.058	0.0513	
T192N	0.0564	0.0571		0.0614	0.0601	0.0555	0.0745	0.0526	0.0724	0.0611	0.0498	0.0618	0.0503	0.0622		0.0557	0.0777		0.0671
T192R	0.0611	0.0596	0.0473	0.0578	0.0597			0.0674		0.0573	0.0754		0.0539	0.0598		0.0542	0.0566	0.0599	0.0634
Q194G	0.0634	0.0526		0.065	0.0827		0.0583	0.0618		0.0638	0.0588	0.0665	0.0603	0.0638				0.0473	0.0606
Q198F	0.0541	0.062	0.0663	0.0645	0.0717	0.0602	0.0599	0.0572	0.0588	0.0695	0.0616	0.0644	0.0659	0.0611	0.0704	0.0637	0.0644	0.0649	0.0562
V200C	0.0544	0.0722	0.0717	0.0585	0.0627	0.0612		0.0585	0.0628		0.0641	0.0459		0.0538	0.0648	0.0586	0.0669		0.0619
V200F	0.0529	0.0652	0.0631			0.0542		0.0567		0.0669					0.06	0.0528			
V200Y	0.0931	0.051		0.038	0.0679		0.0779	0.0588	0.0659	0.0521	0.0549					0.0438	0.0443		
S201D	0.0658	0.0569		0.0653	0.0599		0.0644	0.0646	0.0591	0.0769	0.0617	0.0605		0.0637	0.0721	0.0639		0.044	0.0605
G202C	0.0761	0.0799		0.0673						0.0623	0.0578				0.0556	0.0709	0.0603	0.0474	0.0543
G202F	0.0541	0.0564	0.056	0.0541	0.0699	0.0559	0.0708	0.0458	0.0586	0.0578	0.068	0.0686				0.0516		0.0502	0.0576
